167 variants from the RNAGym collection of RNA variant scans (doi:10.1101/gad.245936.114) can be followed below.

Variants at the floor of the assay are shown more often than the library holds them. Bounds are passed on as bounds.

Sequences and labels used below:
B1: tRNA (parent)
chain: CUCUCGGUAGCCAAGUUGGUUUAAGGCGCAAGACUUUAAUUUAUCACUACGAAAUCUUGAGAUCGGGCGUUCGACUCGCCCCCGGGAGAUUUUUUCCUCGAGCAA

The data set covers variants of B1. The data set is described as follows: nonsense suppression (GFP-seq) (ratio to wild type); higher = more function; SUP4oc tRNA, yeast GFP reporter sort-seq. The essentials: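 Nonsense suppression (GFPSEQ) is the median GFP/RFP ratio of each sorting bin, weighted by the variant's estimated share of cells in that bin and expressed relative to the unmutated parent tRNA. Yeast strains carried genome-integrated variants of an ochre-suppressor tRNA from a library with ~3% random mutations, plus a galactose-driven GFP ochre reporter and RFP, and were grown in raffinose/galactose medium containing 80 mg/L adenine. Cells were sorted into GFP/RFP bins, each bin was Illumina-sequenced (phred ≥30), and variants were kept only with ≥100 reads and ≥30 cells.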
In the case of G15C A23U, the nonsense suppression is not above 0.026.

For the variant G19U G61C, the nonsense suppression is not above 0.026.

As for G15U G25C C29U G73A, the nonsense suppression was not above 0.026.

Consider A23U U55G, for which the nonsense suppression was not above 0.026.

Turning to U8A G61C, the nonsense suppression was not above 0.026.

For the variant G7C G10C G84A, the nonsense suppression is not above 0.026.

For the variant C1U C11U G66A U70C, the nonsense suppression is not above 0.026.

Take C11U U57C G65C: the nonsense suppression is not above 0.026.

With U4G U58C C80A, the nonsense suppression was not above 0.026.

Consider U2G G25U G73C C79G, for which the nonsense suppression was not above 0.026.

For the variant G26U A62C, the nonsense suppression was not above 0.026.

In the case of C3U U8A A9U, the nonsense suppression is not above 0.026.

Turning to A30C C79A, the nonsense suppression is not above 0.026.

Regarding G26C C34G C75A A87U, the nonsense suppression is not above 0.026.

Regarding U4A U21C A54C U57A C81A, the nonsense suppression is not above 0.026.

Regarding A33U C72A, the nonsense suppression was not above 0.026.

With C11U G26A G66C C75A C79G C80G, the nonsense suppression was not above 0.026.

As for U63C G88U, the nonsense suppression is not above 0.026.

For C12U A14U A54U C68G, the nonsense suppression is not above 0.026.

Take A13C U16A: the nonsense suppression came out at 1.17.

As to A60U C64A, the nonsense suppression is not above 0.026.

On to G26U U55G U63G U70C U76A, for which the nonsense suppression is not above 0.026.

For C27U C79U, the nonsense suppression is not above 0.026.

With U2A A9C U21A G26C, the nonsense suppression was not above 0.026.

G19U C64U G65C: the nonsense suppression was not above 0.026.

As for G15U C80G, the nonsense suppression was not above 0.026.

For the variant C1U U4G C5U A31G C81A, the nonsense suppression is not above 0.026.

Take U22G A31U U63C U71A: the nonsense suppression is not above 0.026.

Take G18A U21G G88C: the nonsense suppression was not above 0.026.

U8G C29G A74C: the nonsense suppression was not above 0.026.

Turning to C11G G32U, the nonsense suppression was not above 0.026.

For C11A C12G, the nonsense suppression is not above 0.026.

Consider G15U C64G A89U, for which the nonsense suppression was not above 0.026.

On to C68U C77G, for which the nonsense suppression was not above 0.026.

Turning to C5U G7A C77U, the nonsense suppression is not above 0.026.

With C27G U63C U71C, the nonsense suppression is not above 0.026.

For the variant G7C C29U G73A, the nonsense suppression was not above 0.026.

In the case of G65C C81G, the nonsense suppression worked out at 1.06.

With C29G U57G C83A, the nonsense suppression is not above 0.026.

Turning to U2C G26C U58G G66A G67U, the nonsense suppression is not above 0.026.

Take C3A A14U A24C C34G G61A C75U U76C A89C: the nonsense suppression is not above 0.026.

For the variant U4C G66A G67C C79A, the nonsense suppression is not above 0.026.

In the case of A33U U57C, the nonsense suppression was not above 0.026.

Consider A54G U58A U63A, for which the nonsense suppression is not above 0.026.

For C12A U55C, the nonsense suppression was not above 0.026.

In the case of G15A G69A G73U, the nonsense suppression is not above 0.026.

Turning to C11G U21G, the nonsense suppression was not above 0.026.

For A9C G66A A89C, the nonsense suppression was not above 0.026.

In the case of A13C U55A C80G, the nonsense suppression was not above 0.026.

Take C3A A31C C79G: the nonsense suppression was not above 0.026.

For G18U A33G U55A C75A, the nonsense suppression was not above 0.026.

Regarding C1U C77A G84U, the nonsense suppression is not above 0.026.

For G65A A89C, the nonsense suppression is not above 0.026.

For the variant A23C A60C C77G G85U, the nonsense suppression is not above 0.026.

Take A13C U17A A31G A89U: the nonsense suppression is not above 0.026.

For the variant A30U A62G, the nonsense suppression was not above 0.026.

Take G15A A31U A33G: the nonsense suppression was not above 0.026.

As to U55C C79U, the nonsense suppression was found to be 0.183.

Consider A13C C29U A62C, for which the nonsense suppression is not above 0.026.

On to U35G G61A, for which the nonsense suppression was not above 0.026.

As to G61C G73A C83G, the nonsense suppression was not above 0.026.

On to A24C G26C, for which the nonsense suppression was not above 0.026.

Regarding A54C U76C A87G, the nonsense suppression is not above 0.026.

As to A23G G84U, the nonsense suppression was not above 0.026.

On to G65C C72G, for which the nonsense suppression was not above 0.026.

C75G A89G: the nonsense suppression is not above 0.026.

On to U16A U22G G25U G67C, for which the nonsense suppression is not above 0.026.

Turning to G66U G69C G88U, the nonsense suppression was not above 0.026.

In the case of G10U G32A C34U G65A, the nonsense suppression was not above 0.026.

As for C1G C29A C79U, the nonsense suppression is not above 0.026.

Turning to A9G U35A, the nonsense suppression was not above 0.026.

For C82A G88U, the nonsense suppression is not above 0.026.

For the variant U57C G66C, the nonsense suppression was not above 0.026.

Turning to U22G A33G A54G C75G, the nonsense suppression is not above 0.026.

Regarding A13G A14U G15C U20G G32C C82G G86A, the nonsense suppression is not above 0.026.

Regarding A14G G15A G19C C77G, the nonsense suppression was not above 0.026.

Regarding A24U G69A U71C G85A G86C, the nonsense suppression is not above 0.026.

For U2G A24G A89C, the nonsense suppression was not above 0.026.

On to U17A U76A G86C, for which the nonsense suppression was not above 0.026.

U57G G65C: the nonsense suppression was not above 0.026.

For the variant U2C U16C G26A C82A A89G, the nonsense suppression was not above 0.026.

Regarding C77G G85U, the nonsense suppression was not above 0.026.

In the case of C27A A60U U76A, the nonsense suppression was not above 0.026.

In the case of U8C C29U A62C, the nonsense suppression is not above 0.026.

In the case of G59U G65U A87C, the nonsense suppression was not above 0.026.

Consider C3U A23C A33U G86U, for which the nonsense suppression is not above 0.026.

In the case of C34A A60U, the nonsense suppression is not above 0.026.

As to A24U U58C, the nonsense suppression was not above 0.026.

As to G26C C29A G84A G85A, the nonsense suppression was not above 0.026.

C1G C5A C29A G84U: the nonsense suppression was not above 0.026.

Consider C5A C34G C72G, for which the nonsense suppression is not above 0.026.

Take U20G C80U: the nonsense suppression was found to be 0.202.

For the variant U4G G67U C77U G85A, the nonsense suppression is not above 0.026.

Take U8C U76A: the nonsense suppression was not above 0.026.

Take C34U G66C: the nonsense suppression was not above 0.026.

In the case of G6C A62C, the nonsense suppression is not above 0.026.

On to A13G U58A, for which the nonsense suppression is not above 0.026.

With A31U C80A, the nonsense suppression was not above 0.026.

As to U17C G26C G67A U71C, the nonsense suppression is not above 0.026.

Regarding G26C A89C, the nonsense suppression was not above 0.026.

As to G19C A30U U55C G85C, the nonsense suppression is not above 0.026.

In the case of C27A C29A U71C C79U, the nonsense suppression is not above 0.026.

Consider C1G C5G A30G, for which the nonsense suppression is not above 0.026.

Consider U16C C27G C34G U35A C80G, for which the nonsense suppression is not above 0.026.

Regarding U22C C83A, the nonsense suppression is not above 0.026.

In the case of G6A G18U G28A C34U A89U, the nonsense suppression was not above 0.026.

As to G6C G26U G59C A60U, the nonsense suppression is not above 0.026.

Consider U35G C64G A74G, for which the nonsense suppression is not above 0.026.

As for C64G G66A G73C, the nonsense suppression was not above 0.026.

As to U57G A89U, the nonsense suppression was not above 0.026.

Consider C11A U58G, for which the nonsense suppression was not above 0.026.

As to C64U G65A C72A, the nonsense suppression was not above 0.026.

As for G19C C64G, the nonsense suppression is not above 0.026.

As for G25A G59A, the nonsense suppression was not above 0.026.

On to A13C A31C U76A, for which the nonsense suppression is not above 0.026.

On to G25C A54G, for which the nonsense suppression was not above 0.026.

For C64G, the nonsense suppression is not above 0.026.

Consider G32C G65A, for which the nonsense suppression was not above 0.026.

As for C27U G32A C79A, the nonsense suppression was not above 0.026.

As to U8G G26A G65C C82A, the nonsense suppression is not above 0.026.

As for U8A U21C C56A C80G, the nonsense suppression was not above 0.026.

Turning to C3G G10C C12G A33G, the nonsense suppression is not above 0.026.

Regarding G6C G18U, the nonsense suppression was not above 0.026.

In the case of C3U A23C U70C, the nonsense suppression is not above 0.026.

Regarding U21G U22C G69U G73C, the nonsense suppression is not above 0.026.

In the case of G18A G86A, the nonsense suppression is not above 0.026.

In the case of A9U U57C, the nonsense suppression is not above 0.026.

As for C81G G84C, the nonsense suppression was not above 0.026.

G26A U63C U70A: the nonsense suppression was not above 0.026.

Turning to G18U A33C C68G, the nonsense suppression is not above 0.026.

C68G: the nonsense suppression was not above 0.026.

In the case of C3G C29A C82G C83U, the nonsense suppression is not above 0.026.

Take A60C U63G U70G: the nonsense suppression is not above 0.026.

For A30C C68U C79G, the nonsense suppression is not above 0.026.

Regarding U22C C82G, the nonsense suppression was not above 0.026.

For the variant G15C C34A C82G, the nonsense suppression came out at 0.816.

With U55G C72G U76G, the nonsense suppression was not above 0.026.

As to U4C C72G, the nonsense suppression is not above 0.026.

As for A23C C82G, the nonsense suppression is not above 0.026.

Take U4C A9U G67C: the nonsense suppression is not above 0.026.

Consider C1G A33G, for which the nonsense suppression was not above 0.026.

Turning to A33U A74C, the nonsense suppression was not above 0.026.

G32C A89U: the nonsense suppression is not above 0.026.

Take C56U G66C A89U: the nonsense suppression was not above 0.026.

Consider A9G U71C, for which the nonsense suppression came to 0.0266.

U16A C64U A87G: the nonsense suppression was not above 0.026.

Turning to G61U U71G, the nonsense suppression was not above 0.026.

For C12U A87C, the nonsense suppression was not above 0.026.

With A23G C68U G85U, the nonsense suppression was not above 0.026.

For the variant U4A A33G A60U, the nonsense suppression is not above 0.026.

Take C34G U63A G69U: the nonsense suppression was not above 0.026.

Consider G19A U63C C82A, for which the nonsense suppression was not above 0.026.

As to G6A U22G G26A, the nonsense suppression is not above 0.026.

Take C3U G19C A33U U35G A87U: the nonsense suppression is not above 0.026.

For C1U U16A G73C, the nonsense suppression is not above 0.026.

Regarding U22A G25U, the nonsense suppression amounted to 0.0283.

In the case of C12U A31U C82A, the nonsense suppression is not above 0.026.

For the variant C1A C27U U70C, the nonsense suppression was not above 0.026.

Turning to C12G G18C G67A C77U, the nonsense suppression is not above 0.026.

On to U2C U71G, for which the nonsense suppression is not above 0.026.

As for U4C A54C, the nonsense suppression worked out at 1.01.

Consider G26U C80G, for which the nonsense suppression was not above 0.026.

For the variant U2C A33U U55C C77G G78A, the nonsense suppression is not above 0.026.

U2G U4G G7A C56G: the nonsense suppression is not above 0.026.

For U8G U17C A33G G66U C77A G88C, the nonsense suppression was not above 0.026.

Consider A13C G32C U71G A74C C75A, for which the nonsense suppression is not above 0.026.

On to U21A A33C A74G, for which the nonsense suppression is not above 0.026.
